Data on 57 molecules can be found in the supplement of paper PMC9446081.

Structures are written as SMILES. Out of some 39,000 compounds screened, about 220 (0.56%) showed activity. The list shows a part of the results.
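Note: static incubation at 37 °C against the wild-type strain, values averaged over two biological replicates.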

The subject of this test is Escherichia coli K-12 BW25113. The experiment in a line: relative growth (OD600 normalised to plate interquartile mean) (fraction); higher = less growth inhibition, active = 0.2 or less. The settings on record: 50 µM; LB; incubation time: overnight (16-24 h).
For the molecule `C[C@H]1CCCCO[C@H](CN(C)C(=O)C2CCCCC2)[C@@H](C)CN([C@@H](C)CO)C(=O)c2cc(NS(=O)(=O)c3ccccc3)ccc2O1`, the relative growth was inactive: 0.967.
On to `Cc1ccc(S(=O)(=O)Nc2cccc3c2O[C@@H](CN(C)C(=O)Nc2cccc4ccccc24)[C@H](C)CN([C@@H](C)CO)C3=O)cc1`, for which the relative growth is inactive: 0.993.
`Cc1c(C(=O)O)sc(=O)n1C`: the relative growth is inactive: 1.
For `C[C@@H]1CN([C@@H](C)CO)C(=O)c2cc(NC(=O)NC3CCCCC3)ccc2O[C@H]1CN(C)C(=O)Nc1ccc(C(F)(F)F)cc1`, the relative growth was inactive: 0.961.
On to `COc1ccc(C#Cc2ccc3c(c2)[C@]2(C(=O)N3)[C@H](C(=O)N3CCc4cc(OC)c(OC)cc4C3)[C@H]3C(=O)O[C@H](c4ccccc4)[C@H](c4ccccc4)N3[C@@H]2c2ccc(O)cc2)cc1`, for which the relative growth is inactive: 1.02.
As for `C[C@@H]1CN([C@H](C)CO)S(=O)(=O)c2ccc(C#Cc3ccncc3)cc2O[C@@H]1CN(C)C(=O)Nc1ccc2c(c1)OCO2`, the relative growth was inactive: 1.02.
Take `CC(C)NC(=O)N(C)C[C@H]1Oc2ccc(NC(=O)NC3CCCCC3)cc2CC(=O)N([C@H](C)CO)C[C@H]1C`: the relative growth is inactive: 0.992.
On to `C[C@@H]1CN([C@@H](C)CO)C(=O)c2cc(NC(=O)Nc3ccc(C(F)(F)F)cc3)ccc2O[C@H]1CN(C)C(=O)Nc1ccccc1`, for which the relative growth was inactive: 1.05.
`C[C@@H]1CCCCO[C@H](CN(C)C(=O)Cc2ccccc2)[C@@H](C)CN([C@@H](C)CO)C(=O)c2cc(NC(=O)Cc3ccccc3)ccc2O1`: the relative growth is inactive: 0.977.
For the molecule `C[C@@H]1CN([C@@H](C)CO)C(=O)c2cccc(NS(=O)(=O)c3ccc(F)cc3)c2O[C@@H]1CN(C)CC1CC1`, the relative growth is inactive: 1.
For `O=C(O)CC[C@H](NC(=O)CCn1nnc2ccccc2c1=O)C(=O)O`, the relative growth was inactive: 1.01.
As to `C[C@H](CO)N1C[C@H](C)[C@H](CN(C)S(C)(=O)=O)OCCCC[C@H](C)Oc2ccc(NC(=O)Nc3cccc4ccccc34)cc2C1=O`, the relative growth is inactive: 1.03.
Consider `CCCN(C)C[C@@H]1OCCCC[C@@H](C)Oc2ccc(NC(=O)Nc3ccc4c(c3)OCO4)cc2C(=O)N([C@H](C)CO)C[C@H]1C`, for which the relative growth is inactive: 1.03.
The same measure for `COc1ccc(NC(=O)Nc2ccc3c(c2)CC(=O)N([C@H](C)CO)C[C@@H](C)[C@@H](CN(C)C(=O)Nc2ccc(C(F)(F)F)cc2)O3)cc1`: inactive: 1.01.
For `COc1ccc(CN(C)C[C@H]2OCCCC[C@@H](C)Oc3ccc(NS(=O)(=O)c4ccc(C)cc4)cc3C(=O)N([C@H](C)CO)C[C@H]2C)cc1`, the relative growth is inactive: 1.01.
For `C[C@H](NC(=O)C[C@@H]1C[C@@H]2c3cc(NC(=O)Nc4ccc(C(F)(F)F)cc4)ccc3O[C@@H]2[C@@H](CO)O1)c1ccccc1`, the relative growth was inactive: 1.08.
The value for `C[C@@H]1CCCCO[C@@H](CN(C)Cc2ccc(C(F)(F)F)cc2)[C@@H](C)CN([C@H](C)CO)C(=O)c2cc(NC(=O)C3CCCCC3)ccc2O1` was inactive: 0.987; that for `COc1ccc(C#Cc2cnc3c(c2)C(=O)N([C@H](C)CO)C[C@H](C)[C@H](CN(C)C(=O)CN(C)C)O3)cc1` was inactive: 0.978; that for `C[C@H]1CN([C@@H](C)CO)C(=O)c2cc(NS(=O)(=O)c3ccc(Cl)cc3)ccc2O[C@H]1CN(C)Cc1ccc(C(F)(F)F)cc1` was inactive: 1.03.
Consider `COc1ccc(S(=O)(=O)Nc2ccc3c(c2)CC(=O)N([C@@H](C)CO)C[C@@H](C)[C@H](CN(C)Cc2ccncc2)O3)cc1`, for which the relative growth is inactive: 0.995.
The value for `C[C@H]1CN([C@@H](C)CO)C(=O)Cc2cc(NS(=O)(=O)c3cn(C)cn3)ccc2O[C@H]1CN(C)Cc1ccncc1` was inactive: 0.996; that for `C[C@H]1CN([C@@H](C)CO)C(=O)Cc2cc(NS(=O)(=O)c3ccc(Cl)cc3)ccc2O[C@@H]1CN(C)Cc1ccc(Cl)c(Cl)c1` was inactive: 0.994.
Take `CC(C)CC#Cc1cnc2c(c1)C(=O)N([C@H](C)CO)C[C@H](C)[C@@H](CN(C)C(=O)CCN1CCCCC1)O2`: the relative growth was inactive: 1.01.
On to `C[C@@H]1CN([C@@H](C)CO)C(=O)Cc2cc(NC(=O)Nc3ccccc3)ccc2O[C@H]1CN(C)Cc1ccc(C(=O)Nc2ccccc2N)cc1`, for which the relative growth is inactive: 0.897.
As to `CC(C)NC(=O)N(C)C[C@H]1Oc2c(NS(=O)(=O)c3ccc(Cl)cc3)cccc2C(=O)N([C@@H](C)CO)C[C@H]1C`, the relative growth was inactive: 0.993.
As to `C[C@H](CO)N1C[C@H](C)[C@H](CN(C)C(=O)Nc2ccc(C(F)(F)F)cc2)Oc2c(NC(=O)NC3CCCCC3)cccc2C1=O`, the relative growth was inactive: 0.968.
With `C[C@H]1CN([C@@H](C)CO)C(=O)c2cc(/C=C/c3ccccc3)cnc2O[C@H]1CN(C)C(=O)c1cnccn1`, the relative growth was inactive: 1.01.
Regarding `C[C@@H]1CN([C@@H](C)CO)C(=O)c2cc(NC(=O)Cn3cnnn3)ccc2O[C@@H]1CN(C)CC1CCCCC1`, the relative growth is inactive: 1.01.
Consider `C[C@H](CO)N1C[C@H](C)[C@H](CN(C)Cc2ccc(C(F)(F)F)cc2)OCCCC[C@H](C)Oc2ccc(NC(=O)Nc3ccc(F)cc3)cc2C1=O`, for which the relative growth is inactive: 0.981.
For the molecule `Cc1ccc(S(=O)(=O)N(C)C[C@@H]2OCCCC[C@H](C)Oc3ccc(NS(=O)(=O)c4ccc(F)cc4)cc3C(=O)N([C@@H](C)CO)C[C@@H]2C)cc1`, the relative growth is inactive: 1.01.
Regarding `Cc1noc(C)c1S(=O)(=O)N(C)C[C@H]1Oc2ccc(NS(=O)(=O)c3ccccc3)cc2CC(=O)N([C@H](C)CO)C[C@H]1C`, the relative growth was inactive: 0.967.
As for `Cc1ccc(S(=O)(=O)N(C)C[C@H]2Oc3ncc(C#CCC(C)C)cc3C(=O)N([C@H](C)CO)C[C@@H]2C)cc1`, the relative growth is inactive: 1.
Regarding `C[C@H](CO)N1C[C@H](C)[C@H](CN(C)Cc2ccc(C(=O)Nc3ccccc3N)cc2)Oc2ccc(NC(=O)Nc3ccc(F)cc3)cc2CC1=O`, the relative growth was inactive: 0.976.
As to `COC(=O)c1c(CC[C@@H](CO)NC(=O)N[C@H](Cn2cc(Cc3ccccc3)nn2)C(C)C)oc(C(C)=O)c1C(=O)OC`, the relative growth was inactive: 0.996.
Consider `CCCOc1cc(C)c(N)cc1C`, for which the relative growth is inactive: 1.
Consider `O=C1OC(=O)[C@H]2[C@@H]1[C@H]1CC[C@H]2O1`, for which the relative growth was active: 0.16.
For `C[C@H]1CN([C@@H](C)CO)C(=O)c2cccc(NC(=O)Nc3ccc(C(F)(F)F)cc3)c2O[C@H]1CN(C)Cc1ccc2c(c1)OCO2`, the relative growth is inactive: 0.972.
Consider `CN(C)CCCCNC(=O)[C@@H]1C[C@@H]2C(=O)N[C@@H](CCCC[N+](C)(C)C)C(=O)N2[C@@H]1c1ccc(O)cc1`, for which the relative growth is inactive: 0.993.
The same measure for `C[C@@H]1CN([C@@H](C)CO)C(=O)Cc2cc(NS(C)(=O)=O)ccc2O[C@@H]1CN(C)C(=O)Nc1ccccc1`: inactive: 1.02; for `CC(C)NC(=O)Nc1ccc2c(c1)C(=O)N([C@@H](C)CO)C[C@@H](C)[C@@H](CN(C)S(=O)(=O)c1ccc(F)cc1)O2`: inactive: 1.
Turning to `C[C@H](CO)N1C[C@H](C)[C@H](CN(C)C(=O)C2CCCCC2)OCCCC[C@H](C)Oc2ccc(NC(=O)C3CCCCC3)cc2C1=O`, the relative growth was inactive: 0.999.
The same measure for `Cc1noc(C)c1NC(=O)N(C)C[C@H]1Oc2ccc(NC(=O)Cn3cnnn3)cc2CC(=O)N([C@@H](C)CO)C[C@@H]1C`: inactive: 1.
The same measure for `COc1ccc(S(=O)(=O)N(C)C[C@H]2Oc3c(NS(=O)(=O)c4cn(C)cn4)cccc3C(=O)N([C@H](C)CO)C[C@H]2C)cc1`: inactive: 1.01; for `C[C@@H]1CN([C@@H](C)CO)C(=O)c2ccccc2-c2ccccc2CO[C@H]1CN(C)S(=O)(=O)c1ccc(C(F)(F)F)cc1`: inactive: 1.06; for `CCOC(=O)c1c(C)cc(O)cc1O`: inactive: 0.997.
As to `Cc1noc(C)c1NC(=O)Nc1ccc2c(c1)C(=O)N([C@H](C)CO)C[C@H](C)[C@H](CN(C)Cc1ccc(C(=O)O)cc1)OCCCC[C@H](C)O2`, the relative growth is inactive: 1.03.
For `CN1C2=CC(=O)/C(=N\NC(N)=O)C=C2C[C@H]1S(=O)(=O)O`, the relative growth is inactive: 1.02.
The value for `C[C@H](CO)N1C[C@H](C)[C@@H](CN(C)C(=O)Cc2ccccc2)OCCCC[C@H](C)Oc2ccc(NC(=O)NC3CCCCC3)cc2C1=O` was inactive: 0.973; that for `C[C@H]1CN([C@@H](C)CO)C(=O)c2cccc(NC(=O)c3cnccn3)c2O[C@@H]1CN(C)CC1CCCCC1` was inactive: 0.984.
In the case of `Cc1ccc(S(=O)(=O)Nc2ccc3c(c2)C(=O)N([C@@H](C)CO)C[C@@H](C)[C@H](CN(C)Cc2ccc(C(=O)O)cc2)OCCCC[C@@H](C)O3)cc1`, the relative growth was inactive: 0.975.
For `Cc1ccc(S(=O)(=O)Nc2ccc3c(c2)CC(=O)N([C@H](C)CO)C[C@H](C)[C@H](CN(C)Cc2ccc(C(F)(F)F)cc2)O3)cc1`, the relative growth was inactive: 1.01.
For the molecule `O=C(C[C@@H]1CC[C@@H]2[C@H](COC[C@H](O)CN2C(=O)Nc2cccc(F)c2)O1)NCCCN1CCOCC1`, the relative growth was inactive: 0.957.
For `CCCOc1ccc(S(=O)(=O)N2CCN(CCO)CC2)cc1-c1nc2c(CCC)cn(CC)c2c(=O)[nH]1`, the relative growth was inactive: 1.01.
Consider `CC12C=CC(=O)C=C1CCC1C2C(O)CC2(C)C1CCC2(O)C(=O)CO` (configuration not stated), for which the relative growth was inactive: 1.05.
As to `C[C@H](CO)N1C[C@H](C)[C@H](CN(C)Cc2ccc(Oc3ccccc3)cc2)Oc2ccc(NC(=O)Cc3cn(C)c4ccccc34)cc2C1=O`, the relative growth is inactive: 1.08.
As for `COc1ccc2cc1Oc1ccc(cc1)C[C@H]1c3c(cc4c(c3Oc3cc5c(cc3OC)CCN(C)[C@@H]5C2)OCO4)CCN1C`, the relative growth was inactive: 0.993.
For the molecule `COc1cccc(S(=O)(=O)N[C@H]2CC[C@H](CCn3cc(-c4ccccc4OC)nn3)O[C@H]2CO)c1`, the relative growth is inactive: 1.02.
